Laboratory results from a collection of fitness landscapes (doi:10.1126/science.1257360).
This is one part of the list.

B1: PhoQ; a variant is named by its letters at X, in order, P23837 (parent)
chain: MKKLLRLFFPLSLRVRFLLATAAVVLVLSLAYGMVALIGYSVSFDKTTFRLLRGESNLFYTLAKWENNKLHVELPENIDKQSPTMTLIYDENGQLLWAQRDVPWLMKMIQPDWLKSNGFHEIEADVNDTSLLLSGDHSIQQQLQEVREDDDDAEMTHSVAVNVYPATSRMPKLTIVVVDTIPVELKSSYMVWSWFIYVLSANLLLVIPLLWVAAWWSLRPIEALAKEVRELEEHNRELLNPATTRELTSLVRNLNRLLKSERERYDKYRTTLTDLTHSLKTPLXXLQXXLRSLRSEKMSVSDAEPVMLEQISRISQQIGYYLHRASMRGGTLLSRELHPVAPLLDNLTSALNKVYQRKGVNISLDISPEISFVGEQNDFVEVMGNVLDNACKYCLEFVEISARQTDEHLYIVVEDDGPGIPLSKREVIFDRGQRVDTLRPGQGVGLAVAREITEQYEGKIVAGESMLGGARMEVIFGRQHSAPKDE

Variants of: B1
Experiment: enrichment ratio after two sorts for PhoP signalling (ratio (wild type AVST 3.29)); higher = more functional
Conditions: with PhoP (E. coli)

Row | Variant | enrichment ratio
1 | GSRA | ≤ 0.25
2 | HNVN | ≤ 0.25
3 | QANQ | ≤ 0.25
4 | SRRL | ≤ 0.25
5 | INTC | ≤ 0.25
6 | QKID | ≤ 0.25
7 | MYLS | ≤ 0.25
8 | NMNF | ≤ 0.25
9 | RDDK | ≤ 0.25
10 | FYAM | ≤ 0.25
11 | WGCI | ≤ 0.25
12 | IVKR | ≤ 0.25
13 | KRQL | ≤ 0.25
14 | MNIM | 12.3
15 | GPGI | ≤ 0.25
16 | QRLN | ≤ 0.25
17 | TMVV | 0.573
18 | DAVQ | ≤ 0.25
19 | RRGV | ≤ 0.25
20 | APSF | ≤ 0.25
21 | HAWP | ≤ 0.25
22 | HQLM | 1.87
23 | QLGF | 0.507
24 | TRDY | ≤ 0.25
25 | FYDL | ≤ 0.25

Row | Variant | enrichment ratio
26 | GEIN | ≤ 0.25
27 | FRWW | ≤ 0.25
28 | VCYK | ≤ 0.25
29 | WGRF | ≤ 0.25
30 | AICN | 18.7
31 | THRS | ≤ 0.25
32 | PPED | ≤ 0.25
33 | GDLD | ≤ 0.25
34 | TLVI | ≤ 0.25
35 | WEAQ | ≤ 0.25
36 | AFLY | 0.967
37 | MFQF | ≤ 0.25
38 | GRDW | ≤ 0.25
39 | IESE | ≤ 0.25
40 | QFCQ | ≤ 0.25
41 | HMWM | ≤ 0.25
42 | IFET | ≤ 0.25
43 | RVYD | ≤ 0.25
44 | PNIA | ≤ 0.25
45 | YNSM | 0.318
46 | KFKE | ≤ 0.25
47 | TWKP | ≤ 0.25
48 | LIIN | ≤ 0.25
49 | WAGL | ≤ 0.25
50 | LGDK | ≤ 0.25

Row | Variant | enrichment ratio
51 | WCRL | ≤ 0.25
52 | WPIC | ≤ 0.25
53 | PNPQ | ≤ 0.25
54 | GQCN | ≤ 0.25
55 | EHTY | ≤ 0.25
56 | VEKV | ≤ 0.25
57 | VNYH | ≤ 0.25
58 | TPRH | ≤ 0.25
59 | PCAL | ≤ 0.25
60 | PFLY | ≤ 0.25
61 | EHAM | ≤ 0.25
62 | QVYL | 2.73
63 | PHSA | ≤ 0.25
64 | MKIE | ≤ 0.25
65 | EYNE | ≤ 0.25
66 | TCNE | 19.6
67 | GSTF | ≤ 0.25
68 | DFDH | ≤ 0.25
69 | TTNE | ≤ 0.25
70 | IAVA | ≤ 0.25
71 | PQAV | ≤ 0.25
72 | NSDL | ≤ 0.25
73 | FILL | 3.1
74 | WWRA | ≤ 0.25
75 | VGDF | ≤ 0.25

Row | Variant | enrichment ratio
76 | FFGR | ≤ 0.25
77 | SANR | ≤ 0.25
78 | YHSN | ≤ 0.25
79 | TGPF | ≤ 0.25
80 | SPDH | ≤ 0.25
81 | STNC | ≤ 0.25
82 | KTCN | ≤ 0.25
83 | FKWN | ≤ 0.25
84 | QHHY | ≤ 0.25
85 | TFEN | ≤ 0.25
86 | VFRV | ≤ 0.25
87 | HFYM | ≤ 0.25
88 | HMDQ | ≤ 0.25
89 | GYRW | ≤ 0.25
90 | SETP | ≤ 0.25
91 | VKGD | ≤ 0.25
92 | MVFA | ≤ 0.25
93 | WLSH | ≤ 0.25
94 | FYDC | ≤ 0.25
95 | HSLS | ≤ 0.25
96 | TPST | ≤ 0.25
97 | TERI | ≤ 0.25
98 | MPTI | ≤ 0.25
99 | LIWL | ≤ 0.25
100 | LTHA | ≤ 0.25

Row | Variant | enrichment ratio
101 | PVMW | ≤ 0.25
102 | YPSS | ≤ 0.25
103 | EMKT | ≤ 0.25
104 | QMMG | ≤ 0.25
105 | KECD | ≤ 0.25
106 | WQSD | ≤ 0.25
107 | NRWY | ≤ 0.25
108 | LPCD | ≤ 0.25
109 | PLSL | ≤ 0.25
110 | YHLW | ≤ 0.25
111 | KAYI | ≤ 0.25
112 | ETYF | ≤ 0.25
113 | YHHQ | ≤ 0.25
114 | MVHF | 0.626
115 | AHSK | ≤ 0.25
116 | TDRK | ≤ 0.25
117 | KEDC | ≤ 0.25
118 | MRQD | ≤ 0.25
119 | RGDR | ≤ 0.25
120 | STYT | 0.437
121 | NGVH | ≤ 0.25
122 | KQHE | ≤ 0.25
123 | HGRF | ≤ 0.25
124 | HWAH | ≤ 0.25
125 | EQTK | ≤ 0.25

Row | Variant | enrichment ratio
126 | TCSE | 4.12
127 | GETR | ≤ 0.25
128 | NRNW | ≤ 0.25
129 | MMTK | ≤ 0.25
130 | NSST | ≤ 0.25
131 | SCTE | 1.69
132 | SNKI | ≤ 0.25
133 | YVCE | ≤ 0.25
134 | GMSC | ≤ 0.25
135 | LLGA | ≤ 0.25
136 | SIKV | ≤ 0.25
137 | SFHF | ≤ 0.25
138 | RDGE | ≤ 0.25
139 | KALV | ≤ 0.25
140 | FCTP | ≤ 0.25
141 | LLTG | ≤ 0.25
142 | ADLY | 1.07
143 | DDHT | ≤ 0.25
144 | KKGG | ≤ 0.25
145 | LISY | ≤ 0.25
146 | LYGF | ≤ 0.25
147 | LWFH | ≤ 0.25
148 | WAHG | ≤ 0.25
149 | NKQC | ≤ 0.25
150 | VCFM | ≤ 0.25

Row | Variant | enrichment ratio
151 | NWAH | ≤ 0.25
152 | LWCD | ≤ 0.25
153 | HIHS | ≤ 0.25
154 | TSWR | ≤ 0.25
155 | YPQE | ≤ 0.25
156 | FKVL | ≤ 0.25
157 | KLAG | ≤ 0.25
158 | KFMV | ≤ 0.25
159 | FDWT | ≤ 0.25
160 | HDKH | ≤ 0.25
161 | DIWT | ≤ 0.25
162 | VNFP | 0.624
163 | NIVR | ≤ 0.25
164 | WRAV | ≤ 0.25
165 | SYVV | 0.291
166 | RETQ | ≤ 0.25
167 | DVTI | ≤ 0.25
168 | ELFD | ≤ 0.25
169 | FCGV | ≤ 0.25
170 | KDGF | ≤ 0.25
171 | LNPS | ≤ 0.25
172 | YKWQ | ≤ 0.25
173 | ALCY | 6.92
174 | GCRF | ≤ 0.25
175 | SKQF | ≤ 0.25

Row | Variant | enrichment ratio
176 | TFYG | ≤ 0.25
177 | TLNH | 9.5
178 | LQID | ≤ 0.25
179 | YCSE | 0.428
180 | PVYN | ≤ 0.25
181 | SGKI | ≤ 0.25
182 | IICG | ≤ 0.25
183 | RVNC | ≤ 0.25
184 | RMNY | ≤ 0.25
185 | DWYC | ≤ 0.25
186 | WDCN | ≤ 0.25
187 | VSCQ | 4.61
188 | WQHP | ≤ 0.25
189 | MWLC | ≤ 0.25
190 | NFFG | ≤ 0.25
191 | GAMT | ≤ 0.25
192 | PIKP | ≤ 0.25
193 | DMNF | ≤ 0.25
194 | KECI | ≤ 0.25
195 | NHEN | ≤ 0.25
